# Experimental data published in the antibiotic and cytotoxicity screens of Wong et al. (2023).
# The other results are listed elsewhere or left out.
# Experiments:
# HSkMC = human skeletal muscle cells; assay: cytotoxicity call (relative viability < 0.9); details: 10 µM
# S. aureus RN4220 = assay: growth inhibition call (relative growth <= 0.2); details: 50 µM
SMILES,cytotoxicity call (HSkMC),growth inhibition call (S. aureus RN4220)
C[C@@H]1CN([C@@H](C)CO)C(=O)CCCn2nncc2CO[C@H]1CN(C)S(=O)(=O)c1ccc(Cl)cc1,inactive,inactive
Cc1noc(C)c1NC(=O)Nc1ccc2c(c1)C(=O)N([C@@H](C)CO)C[C@@H](C)[C@H](CN(C)C(=O)Nc1ccc(F)cc1)OCCCC[C@H](C)O2,inactive,inactive
C[C@@H]1CCCCO[C@@H](CN(C)S(=O)(=O)c2cn(C)cn2)[C@H](C)CN([C@H](C)CO)C(=O)c2cc(N(C)C)ccc2O1,inactive,inactive
COc1ccc(NC(=O)Nc2ccc3c(c2)C(=O)N([C@@H](C)CO)C[C@@H](C)[C@@H](CN(C)Cc2ccc4c(c2)OCO4)OCCCC[C@@H](C)O3)cc1,inactive,inactive
CO[C@H]1CN(C)C(=O)c2cc(NC(=O)NC3CCCCC3)ccc2OC[C@@H](C)N(CCc2ccccc2)C[C@@H]1C,active,inactive
C[C@H]1CN([C@@H](C)CO)C(=O)c2cc(NC(=O)Nc3ccc(F)cc3)ccc2O[C@@H]1CN(C)Cc1ccc(C(F)(F)F)cc1,inactive,inactive
C[C@H]1CN([C@@H](C)CO)C(=O)c2cccc(NS(=O)(=O)c3ccc(F)cc3)c2O[C@@H]1CN(C)Cc1ccc(-c2ccccc2)cc1,inactive,inactive
Cc1ccc(S(=O)(=O)N(C)C[C@H]2Oc3c(NC(=O)C4CCOCC4)cccc3C(=O)N([C@@H](C)CO)C[C@H]2C)cc1,inactive,inactive
C[C@@H]1CN([C@H](C)CO)C(=O)c2cc(NS(=O)(=O)c3ccc(F)cc3)ccc2O[C@@H](C)CCCCO[C@@H]1CN(C)S(=O)(=O)c1ccc(Cl)cc1,inactive,inactive
COc1ccc(NC(=O)Nc2cccc3c2O[C@@H](CN(C)C(=O)Nc2ccc(C(F)(F)F)cc2)[C@@H](C)CN([C@@H](C)CO)C3=O)cc1,inactive,inactive
CON=C(C(=O)NC1C(=O)N2C(C(=O)[O-])=C(CSc3nc(=O)c([O-])nn3C)CSC12)c1csc(N)n1.O.O.O.[Na+].[Na+] (configuration not stated),inactive,inactive
